Data taken from PubChem BioAssay (NCI).
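A five-concentration, 48-hour dose response in 96-well plates underlies each endpoint, interpolated linearly between surrounding concentrations. At the GI50, growth is halved. TGI marks complete inhibition of growth.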

These compounds were tested on NCI-H322M lung (assay: inhibition of tumour cell growth, NCI panel, 48 h).

First: O=C(NO)c1ccc(-c2nc3ccc4[nH]ncc4c3c3c2CCCC3)cc1
Second: CC(=O)Nc1ccc(-n2cnc3cc(-c4ccc(O)cc4)ccc32)cc1C(F)(F)F
The GI50 of the first is 110-fold lower: 0.133 µM for the first, 14.2 µM for the second.

`COc1ccc2[nH]c(O)c(N=NC(=O)COc3ccc(NC(=O)Nc4ccc(Cl)c(Cl)c4)cc3)c2c1` and `N#Cc1cc(-c2ccc3ncnc(N4CCc5cc(F)c(Cl)cc54)c3c2)cnc1N` are within 1.5-fold of each other in GI50: 2.42 µM for the first, 2.33 µM for the second.

`CC(C)C[C@H](NC(=O)CNC(=O)C[C@H]1O[C@@H]2OC3(C)CC[C@H]4[C@H](C)CC[C@@H]([C@H]1C)[C@@]24O3)B(O)O` showed a GI50 of 13.9 µM.

Compared with `O=C(NO)c1ccc(-c2nc3ccc4[nH]ncc4c3c3c2CCCC3)cc1`, `CC(=O)Nc1ccc(-n2cnc3cc(-c4ccc(O)cc4)ccc32)cc1C(F)(F)F` is 15-fold higher in TGI: 3.33 µM for the first, 48.6 µM for the second.

First: COc1ccc2[nH]c(O)c(N=NC(=O)COc3ccc(NC(=O)Nc4ccc(Cl)c(Cl)c4)cc3)c2c1
Second: N#Cc1cc(-c2ccc3ncnc(N4CCc5cc(F)c(Cl)cc54)c3c2)cnc1N
The TGI of the first is lower: 11.5 µM for the first, over 100 µM for the second.

In the case of `CC(C)C[C@H](NC(=O)CNC(=O)C[C@H]1O[C@@H]2OC3(C)CC[C@H]4[C@H](C)CC[C@@H]([C@H]1C)[C@@]24O3)B(O)O`, the TGI is reported as 43.1 µM.
